# Results published in the BET-seq Pho4 binding data (Le et al. 2018).
# The list shows a part of the results. Values were computed here from the reads of four pooled replicates and scatter widely.
# Molecular target: T1, Pho4 (S. cerevisiae) (UniProt P07270)
# T1 sequence: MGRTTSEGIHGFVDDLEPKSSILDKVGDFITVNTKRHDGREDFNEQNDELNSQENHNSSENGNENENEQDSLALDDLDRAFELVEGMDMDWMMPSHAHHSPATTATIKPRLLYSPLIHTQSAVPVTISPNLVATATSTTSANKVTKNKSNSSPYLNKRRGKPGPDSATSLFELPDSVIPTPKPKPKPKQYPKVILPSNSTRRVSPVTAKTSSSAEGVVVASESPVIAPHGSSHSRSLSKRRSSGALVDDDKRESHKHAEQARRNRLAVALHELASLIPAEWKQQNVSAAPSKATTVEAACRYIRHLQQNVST
# Test: relative binding free energy (BET-seq); higher = weaker binding
# Settings: reference: library average
row,Sequence,relative binding free energy
1,TATATCACGTGGTGCT,0.15 kcal/mol
2,GGTTACACGTGAGGAT,0.42 kcal/mol
3,ATCGGCACGTGATTGT,0.04 kcal/mol
4,AATTGCACGTGTGCTT,-0.06 kcal/mol
5,CGAATCACGTGGGTTA,0.08 kcal/mol
6,TGAAACACGTGGGCGG,-0.06 kcal/mol
7,CGTAGCACGTGGCTGG,-0.08 kcal/mol
8,TGGAACACGTGAGGAG,0.35 kcal/mol
9,TGGCTCACGTGGTGCA,0.17 kcal/mol
10,AAGAACACGTGGTTTG,0.07 kcal/mol
11,TAGCTCACGTGATTGG,0.39 kcal/mol
12,GGGTCCACGTGGGTGA,-0.02 kcal/mol
13,GATTACACGTGCGGTG,0.34 kcal/mol
14,TTAAACACGTGGTGGC,0.05 kcal/mol
15,TAGCTCACGTGATGTA,0.27 kcal/mol
16,GGTGTCACGTGGCAGA,0.02 kcal/mol
17,TCGATCACGTGATGGG,0.46 kcal/mol
18,TTAGTCACGTGTCTTA,0.03 kcal/mol
19,GTCGGCACGTGTGGCT,0.01 kcal/mol
20,TGAGTCACGTGCGTAG,-0.07 kcal/mol
21,GTTAACACGTGTCTGG,0.05 kcal/mol
22,TGGGTCACGTGGTACT,0.03 kcal/mol
23,AGGATCACGTGTGCGT,0.07 kcal/mol
24,TGGCGCACGTGGTTGG,-0.18 kcal/mol
25,ATGGTCACGTGGCGGC,0 kcal/mol

row,Sequence,relative binding free energy
1,CGGGGCACGTGAAGAA,0.25 kcal/mol
2,ATGTTCACGTGGCCTG,0.22 kcal/mol
3,TGCGTCACGTGCGGGG,-0.07 kcal/mol
4,ATCGGCACGTGGGTGT,-0.18 kcal/mol
5,AGTAGCACGTGGTAGA,-0.1 kcal/mol
6,AGTAGCACGTGGTCGG,-0.14 kcal/mol
7,AGGTACACGTGTAAGT,0.14 kcal/mol
8,TGAGACACGTGGTTGA,-0.05 kcal/mol
9,TCTGGCACGTGTCATG,-0.07 kcal/mol
10,ATTGGCACGTGGTTTA,-0.08 kcal/mol
11,GTACTCACGTGATTTT,0.26 kcal/mol
12,TCGAGCACGTGCGGGT,0 kcal/mol
13,TGGGGCACGTGTAAAA,0.03 kcal/mol
14,TCCAACACGTGTGGTT,0.16 kcal/mol
15,AAAAGCACGTGCGGGT,-0.18 kcal/mol
16,TACGGCACGTGGCAGG,-0.07 kcal/mol
17,TGTTACACGTGATGTG,0.18 kcal/mol
18,AGTGACACGTGGTGAG,-0.04 kcal/mol
19,GGGGGCACGTGGTATC,-0.09 kcal/mol
20,TAGCGCACGTGTTGTT,-0.11 kcal/mol
21,GTTGTCACGTGCGGGA,0.22 kcal/mol
22,ATTAGCACGTGGGTCT,-0.26 kcal/mol
23,AGATTCACGTGTTCTT,0.12 kcal/mol
24,TGAGGCACGTGGAGCT,-0.16 kcal/mol
25,TAGGTCACGTGTGTGG,0.09 kcal/mol

row,Sequence,relative binding free energy
1,TGTTCCACGTGGTTTA,-0.05 kcal/mol
2,GAATTCACGTGGTGAA,0.26 kcal/mol
3,TTAATCACGTGCGTTA,-0.01 kcal/mol
4,GCAGGCACGTGTCGGT,-0.05 kcal/mol
5,ATGGACACGTGGTGCA,-0.14 kcal/mol
6,AGTTTCACGTGGTCTT,0.19 kcal/mol
7,GTTCTCACGTGCTTTT,0.34 kcal/mol
8,GGACTCACGTGGGATG,0.08 kcal/mol
9,AACGGCACGTGTGGGG,-0.12 kcal/mol
10,GTAGTCACGTGAAGCG,0.29 kcal/mol
11,GTGTACACGTGTACAG,0.12 kcal/mol
12,TTGGGCACGTGTCCAG,-0.15 kcal/mol
13,GGTTACACGTGTGATA,0.12 kcal/mol
14,ATTTGCACGTGAAGTG,0.3 kcal/mol
15,ATGTACACGTGATATT,0.06 kcal/mol
16,GGAGTCACGTGGTTCA,0.1 kcal/mol
17,TTCAGCACGTGCGAGT,-0.01 kcal/mol
18,AGGTTCACGTGGGTAA,0.12 kcal/mol
19,GTTATCACGTGCGTGG,0.08 kcal/mol
20,ATGGGCACGTGAGTGA,-0.05 kcal/mol
21,TCGTACACGTGTGGGT,0.19 kcal/mol
22,TGGGCCACGTGTGTAT,0.02 kcal/mol
23,CCTGTCACGTGCGTGG,-0.01 kcal/mol
24,GTATTCACGTGGCGTC,0.28 kcal/mol
25,GAGGGCACGTGCCGGT,-0.06 kcal/mol

row,Sequence,relative binding free energy
1,CTTGCCACGTGTGGGG,-0.06 kcal/mol
2,GTTTTCACGTGTATAT,0.24 kcal/mol
3,TTCGGCACGTGTACTG,0 kcal/mol
4,CAGGGCACGTGGCGTG,-0.07 kcal/mol
5,GTGTGCACGTGTTGCC,0 kcal/mol
6,TCTTTCACGTGCGTTA,0.18 kcal/mol
7,TAGTCCACGTGTGTGT,0.01 kcal/mol
8,GAAATCACGTGTTGAT,0.18 kcal/mol
9,CTGGGCACGTGTGTGG,-0.08 kcal/mol
10,GCAGGCACGTGTAAGG,0.01 kcal/mol
11,CGGGTCACGTGTCATG,0.01 kcal/mol
12,GGTGACACGTGGTCTT,-0.11 kcal/mol
13,GTTAGCACGTGGGCGC,-0.22 kcal/mol
14,TATTTCACGTGTGGGG,0.28 kcal/mol
15,GTTTGCACGTGGCTGG,0.02 kcal/mol
16,GTTGACACGTGGAATT,0.07 kcal/mol
17,GGTGGCACGTGTCAGA,0.04 kcal/mol
18,ACGAACACGTGGGGGG,-0.02 kcal/mol
19,TAGTGCACGTGGAACT,0.07 kcal/mol
20,CCTTGCACGTGGTTGG,-0.1 kcal/mol
21,TACGACACGTGTAGGG,-0.03 kcal/mol
22,TCGGTCACGTGGGGCG,-0.07 kcal/mol
23,CGTATCACGTGGTTTG,0.06 kcal/mol
24,TCGGGCACGTGAAGGG,0.21 kcal/mol
25,ATTGTCACGTGACGTT,0.18 kcal/mol

row,Sequence,relative binding free energy
1,AAAATCACGTGTGGTG,-0.02 kcal/mol
2,TGGCTCACGTGAAGAT,0.41 kcal/mol
3,CAGGTCACGTGTGGCG,0.05 kcal/mol
4,TACTCCACGTGGGTGG,-0.14 kcal/mol
5,GTAGCCACGTGGCGGT,-0.21 kcal/mol
6,AGTTGCACGTGGGGGC,-0.11 kcal/mol
7,AATTGCACGTGGGAGT,-0.04 kcal/mol
8,TTGTACACGTGACATG,0.12 kcal/mol
9,ATTTTCACGTGGTCTC,0.24 kcal/mol
10,TGATGCACGTGGGAGG,-0.11 kcal/mol
11,ATATTCACGTGAAATT,0.32 kcal/mol
12,TTTTACACGTGATTAG,0.25 kcal/mol
13,CGGGGCACGTGGTGCT,-0.39 kcal/mol
14,TGTATCACGTGCAGAA,0.14 kcal/mol
15,AAGTGCACGTGGAGGG,-0.03 kcal/mol
16,ACGGGCACGTGTGCGT,-0.13 kcal/mol
17,CTTAGCACGTGATTGG,0.03 kcal/mol
18,ACAGTCACGTGGGCGT,-0.05 kcal/mol
19,AGGGTCACGTGTCATT,0.09 kcal/mol
20,TGAGTCACGTGAGGGT,0.34 kcal/mol
21,CGGAGCACGTGGTTTG,-0.12 kcal/mol
22,AGTATCACGTGTTACG,0.18 kcal/mol
23,AGGCGCACGTGGGAGT,-0.2 kcal/mol
24,AGATACACGTGTATGG,0.12 kcal/mol
25,TTGTGCACGTGTGCTG,0.06 kcal/mol

row,Sequence,relative binding free energy
1,TTTGTCACGTGGTTCT,0.23 kcal/mol
2,TCAGTCACGTGGATGG,0.05 kcal/mol
3,GTTCGCACGTGCTGGG,0.02 kcal/mol
4,ATAATCACGTGAGTGG,0.13 kcal/mol
5,TGAAACACGTGATAGG,0.11 kcal/mol
6,TAGAGCACGTGTGCGT,-0.17 kcal/mol
7,AGTAGCACGTGAGCTT,0.14 kcal/mol
8,TCATGCACGTGGTGTC,-0.1 kcal/mol
9,AGTCCCACGTGGGGGT,-0.27 kcal/mol
10,TTGCGCACGTGTATTT,-0.1 kcal/mol
11,AATGGCACGTGGTGCG,-0.23 kcal/mol
12,TCTATCACGTGTTTAT,0.18 kcal/mol
13,TAGTCCACGTGTGTCG,0.05 kcal/mol
14,AGGTACACGTGAATTA,0.24 kcal/mol
15,GTTTACACGTGGTACG,0.14 kcal/mol
16,GGGGACACGTGCGGGG,-0.04 kcal/mol
17,GTTTGCACGTGCTTTC,0.16 kcal/mol
18,TGCGTCACGTGGCGGA,-0.01 kcal/mol
19,TTGTGCACGTGGAGCA,-0.02 kcal/mol
20,GGGTCCACGTGAGGTG,0.17 kcal/mol
21,ATGGGCACGTGCTGTA,-0.3 kcal/mol
